Results from the supplement of paper PMC8728848.
This is one part of the list.

Tests used:
Test in all cases: glycan array binding signal (z-score within array); higher = stronger binding
Settings in all cases: glycan notation: IUPAC condensed, linker removed
[1] = target: Neu5Ac(a2-8)Neu5Ac
Method in brief: (§1)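 Arrays were curated from the Consortium for Functional Glycomics database, 3228 in total, and kept only where the protein sequence was available. Binding is expressed as a within-array Z-score. This score was averaged across arrays of the same protein sequence at different concentrations or buffers and across linkers, and negative values can be read as non-binding.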

[2] = target: Neu5Ac(a2-8)Neu5Ac(a2-3)Gal(b1-3)GalNAc(b1-4)[Neu5Ac(a2-3)]Gal(b1-4)Glc
Method in brief: as §1

[3] = target: Neu5Ac(a2-8)Neu5Ac(a2-3)Gal(b1-3)GalNAc(b1-4)[Neu5Ac(a2-8)Neu5Ac(a2-3)]Gal(b1-4)Glc
Method in brief: as §1

[4] = target: Neu5Ac(a2-8)Neu5Ac(a2-3)Gal(b1-4)Glc
Method in brief: as §1

[5] = target: Neu5Ac(a2-8)Neu5Ac(a2-3)Gal(b1-4)GlcNAc
Method in brief: as §1

[6] = target: Neu5Ac(a2-8)Neu5Ac(a2-3)[Gal(b1-3)GalNAc(b1-4)]Gal(b1-4)Glc
Method in brief: as §1

[7] = target: Neu5Ac(a2-8)Neu5Ac(a2-3)[GalNAc(b1-4)]Gal(b1-4)Glc
Method in brief: as §1

[8] = target: Neu5Ac(a2-8)Neu5Ac(a2-8)Neu5Ac
Method in brief: as §1

[9] = target: Neu5Ac(a2-8)Neu5Ac(a2-8)Neu5Ac(a2-3)Gal(b1-4)Glc
Method in brief: as §1

[10] = target: Neu5Ac(a2-8)Neu5Ac(a2-8)Neu5Ac(a2-3)[Gal(b1-3)GalNAc(b1-4)]Gal(b1-4)Glc
Method in brief: as §1

[11] = target: Neu5Ac(a2-8)Neu5Ac(a2-8)Neu5Ac(a2-3)[GalNAc(b1-4)]Gal(b1-4)Glc
Method in brief: as §1

[12] = target: Neu5Ac(a2-8)Neu5Ac(a2-8)Neu5Ac(a2-8)Neu5Ac(a2-3)[GalNAc(b1-4)]Gal(b1-4)Glc
Method in brief: as §1

[13] = target: Neu5Ac(a2-8)Neu5Gc(a2-3)Gal(b1-4)GlcNAc
Method in brief: as §1

[14] = target: Neu5Ac(b2-6)Gal(b1-4)GlcNAc
Method in brief: as §1

[15] = target: Neu5Ac(b2-6)GalNAc
Method in brief: as §1

[16] = target: Neu5Ac9Ac(a2-3)Gal(b1-3)GlcNAc
Method in brief: as §1

[17] = target: Neu5Ac9Ac(a2-3)Gal(b1-4)GlcNAc
Method in brief: as §1

[18] = target: Neu5Ac9Ac(a2-6)Gal(b1-4)GlcNAc
Method in brief: as §1

[19] = target: Neu5Gc(a2-3)Gal(b1-3)GlcNAc
Method in brief: as §1

[20] = target: Neu5Gc(a2-3)Gal(b1-3)[Fuc(a1-4)]GlcNAc
Method in brief: as §1

[21] = target: Neu5Gc(a2-3)Gal(b1-4)Glc
Method in brief: as §1

[22] = target: Neu5Gc(a2-3)Gal(b1-4)GlcNAc
Method in brief: as §1

[23] = target: Neu5Gc(a2-3)Gal(b1-4)GlcNAc(b1-3)Gal(b1-4)GlcNAc(b1-2)Man(a1-3)[Neu5Gc(a2-3)Gal(b1-4)GlcNAc(b1-3)Gal(b1-4)GlcNAc(b1-2)Man(a1-6)]Man(b1-4)GlcNAc(b1-4)GlcNAc
Method in brief: as §1

[24] = target: Neu5Gc(a2-3)Gal(b1-4)[Fuc(a1-3)]GlcNAc
Method in brief: as §1

[25] = target: Neu5Gc(a2-6)Gal(b1-4)GlcNAc
Method in brief: as §1

[26] = target: Neu5Gc(a2-6)GalNAc
Method in brief: as §1

[27] = target: Neu5Gc(a2-8)Neu5Ac(a2-3)Gal(b1-4)GlcNAc
Method in brief: as §1

[28] = target: Neu5Gc(a2-8)Neu5Gc(a2-3)Gal(b1-4)GlcNAc
Method in brief: as §1

[29] = target: Neu5Gc(a2-8)Neu5Gc(a2-3)Gal(b1-4)GlcNAc(b1-3)Gal(b1-4)GlcNAc
Method in brief: as §1

[30] = target: Neu5Gc(a2-8)Neu5Gc(a2-6)Gal(b1-4)GlcNAc
Method in brief: as §1

[31] = target: Neu5Gc(b2-6)Gal(b1-4)GlcNAc
Method in brief: as §1

B1: Cohesin-hLangerin (Homo sapiens) (protein)
chain: LDDLDAVRIKVDTVNAKPGDTVRIPVRFSGIPSKGIANCDFVYSYDPNVLEIIEIEPGDIIVDPNPDKSFDTAVYPDRKIIVFLFAEDSGTGAYAITKDGVFATIVAKVKEGAPNGLSVIKFVEVGGFANNDLVEQKTQFFDGGANVGDTTEPATPTTPVTTPTTTDDLDAASYPRFMGTISDVKTNVQLLKGRVDNISTLDSEIKKNSDGMEAAGVQIQMVNESLGYVRSQFLKLKTSVEKANAQIQILTRSWEEVSTLNAQIPELKSDLEKASALNTKIRALQGSLENMSKLLKRQNDILQVVSQGWKYFKGNFYYFSLIPKTWYSAEQFCVSRNSHLTSVTSESEQEFLYKTAGGLIYWIGLTKAGMEGDWSWVDDTPFNKVQSARFWIPGEPNNAGNNEHCGNIKAPSLQAWNDAPCDKTFLFICKRPYVPSEPHHHHHH
- glycan array binding signal (z-score) [1]: -0.422
- glycan array binding signal (z-score) [2]: -0.417
- glycan array binding signal (z-score) [3]: -0.198
- glycan array binding signal (z-score) [4]: -0.429
- glycan array binding signal (z-score) [5]: -0.431
- glycan array binding signal (z-score) [6]: -0.417
- glycan array binding signal (z-score) [7]: -0.342
- glycan array binding signal (z-score) [8]: -0.426
- glycan array binding signal (z-score) [9]: -0.435
- glycan array binding signal (z-score) [10]: -0.401
- glycan array binding signal (z-score) [11]: -0.383
- glycan array binding signal (z-score) [12]: -0.249
- glycan array binding signal (z-score) [13]: -0.395
- glycan array binding signal (z-score) [14]: -0.412
- glycan array binding signal (z-score) [15]: -0.436
- glycan array binding signal (z-score) [16]: -0.079
- glycan array binding signal (z-score) [17]: -0.363
- glycan array binding signal (z-score) [18]: 0.941
- glycan array binding signal (z-score) [19]: -0.396
- glycan array binding signal (z-score) [20]: -0.194
- glycan array binding signal (z-score) [21]: -0.104
- glycan array binding signal (z-score) [22]: -0.364
- glycan array binding signal (z-score) [23]: -0.396
- glycan array binding signal (z-score) [24]: -0.243
- glycan array binding signal (z-score) [25]: -0.164
- glycan array binding signal (z-score) [26]: -0.305
- glycan array binding signal (z-score) [27]: -0.431
- glycan array binding signal (z-score) [28]: -0.437
- glycan array binding signal (z-score) [29]: -0.438
- glycan array binding signal (z-score) [30]: -0.412
- glycan array binding signal (z-score) [31]: -0.42
